# Columns and labels:
# Experiment in all cases: cells
# [1] = test system: KM12; assay type: functional; conditions: Homo sapiens, time 48 hrs
# [2] = test system: K562; conditions: Homo sapiens, K562, 48 h, read-out: LC50
# [3] = test system: HCC 2998; conditions: Homo sapiens, HCC 2998, 48 h, read-out: LC50
# [4] = test system: MDA-MB-468; assay type: functional; conditions: Homo sapiens, time 48 hrs
# [5] = test system: SNB-19; conditions: Homo sapiens, SNB-19, 48 h, read-out: LC50
# [6] = test system: HL-60(TB); assay type: functional; conditions: Homo sapiens, time 48 hrs
# [7] = test system: NCI-H460; conditions: Homo sapiens, NCI-H460, 48 h, read-out: LC50
# [8] = test system: HL-60(TB); assay type: functional; conditions: Homo sapiens, time 48 hrs; remark: listed apart in the source
# [9] = test system: MDA-MB-435; assay type: functional; conditions: Homo sapiens, time 48 hrs
# [10] = test system: HOP-92; assay type: functional; conditions: Homo sapiens, time 48 hrs
# [11] = test system: IGROV-1; assay type: functional; conditions: Homo sapiens, time 48 hrs
# [12] = test system: OVCAR-8; conditions: Homo sapiens, OVCAR-8, 48 h, read-out: LC50
# [13] = test system: DU-145; conditions: Homo sapiens, DU-145, 48 h, read-out: LC50
# [14] = test system: T47D; assay type: functional; conditions: Homo sapiens, time 48 hrs
# [15] = test system: OVCAR-4; assay type: functional; conditions: Homo sapiens, time 48 hrs
# [16] = test system: T47D; conditions: Homo sapiens, 48 h, read-out: LC50
# [17] = test system: U-251; conditions: Homo sapiens, U-251, 48 h, read-out: LC50
# [18] = test system: LOX IMVI; assay type: functional; conditions: Homo sapiens, time 48 hrs
# [19] = test system: SN12C; assay type: functional; conditions: Homo sapiens, time 48 hrs
# [20] = test system: K562; assay type: functional; conditions: Homo sapiens, time 48 hrs
# [21] = test system: BT-549; conditions: Homo sapiens, BT-549, 48 h, read-out: LC50
# [22] = test system: NCI-H322M; assay type: functional; conditions: Homo sapiens, time 48 hrs
# [23] = test system: ACHN; conditions: Homo sapiens, 48 h, read-out: LC50
# [24] = test system: SNB-19; assay type: functional; conditions: Homo sapiens, time 48 hrs
# [25] = test system: NCI-H522; assay type: functional; conditions: Homo sapiens, time 48 hrs
# [26] = test system: ACHN; assay type: functional; conditions: Homo sapiens, time 48 hrs
# [27] = test system: IGROV-1; conditions: Homo sapiens, IGROV-1, 48 h, read-out: LC50
# [28] = test system: NCI-H322M; conditions: Homo sapiens, 48 h, read-out: LC50
# [29] = test system: COLO 205; assay type: functional; conditions: Homo sapiens, time 48 hrs
# [30] = test system: SN12C; assay type: functional; conditions: Homo sapiens, time 48 hrs; remark: listed apart in the source
# [31] = test system: TK-10; assay type: functional; conditions: Homo sapiens, time 48 hrs
# [32] = test system: SW-620; conditions: Homo sapiens, SW-620, 48 h, read-out: LC50
# [33] = test system: SNB-75; conditions: Homo sapiens, SNB-75, 48 h, read-out: LC50
# [34] = test system: SK-MEL-2; assay type: functional; conditions: Homo sapiens, time 48 hrs
# [35] = test system: HOP-62; assay type: functional; conditions: Homo sapiens, time 48 hrs
# [36] = test system: HOP-62; conditions: Homo sapiens, HOP-62, 48 h, read-out: LC50
# [37] = test system: 786-0; assay type: functional; conditions: Homo sapiens, time 48 hrs
# [38] = test system: Hs-578T; conditions: Homo sapiens, 48 h, read-out: LC50
# [39] = test system: MOLT-4; assay type: functional; conditions: Homo sapiens, time 48 hrs
# [40] = test system: SN12C; conditions: Homo sapiens, 48 h, read-out: LC50
# [41] = test system: COLO 205; conditions: Homo sapiens, COLO 205, 48 h, read-out: LC50
# [42] = test system: SR; assay type: functional; conditions: Homo sapiens, time 48 hrs
# [43] = test system: MCF7; conditions: Homo sapiens, MCF7, 48 h, read-out: LC50
# [44] = test system: UO-31; conditions: Homo sapiens, UO-31, 48 h, read-out: LC50
# [45] = test system: SK-MEL-2; conditions: Homo sapiens, SK-MEL-2, 48 h, read-out: LC50
# [46] = test system: MDA-MB-435; assay type: functional; conditions: Homo sapiens, time 48 hrs; remark: listed apart in the source
# [47] = test system: RPMI-8226; assay type: functional; conditions: Homo sapiens, time 48 hrs
# [48] = test system: MDA-MB-231; assay type: functional; conditions: Homo sapiens, time 48 hrs
# [49] = test system: UO-31; assay type: functional; conditions: Homo sapiens, time 48 hrs
# [50] = test system: CAKI-1; assay type: functional; conditions: Homo sapiens, time 48 hrs
# [51] = test system: MCF7; assay type: functional; conditions: Homo sapiens, time 48 hrs
# [52] = test system: MDA-MB-231; conditions: Homo sapiens, MDA-MB-231, 48 h, read-out: LC50
# [53] = test system: A498; conditions: Homo sapiens, A498, 48 h, read-out: LC50
# [54] = test system: DU-145; assay type: functional; conditions: Homo sapiens, time 48 hrs
# [55] = test system: ACHN; assay type: functional; conditions: Homo sapiens, time 48 hrs; remark: listed apart in the source
# [56] = test system: Hs-578T; assay type: functional; conditions: Homo sapiens, time 48 hrs
# [57] = test system: RPMI-8226; assay type: functional; conditions: Homo sapiens, time 48 hrs; remark: listed apart in the source
# [58] = test system: MDA-MB-468; conditions: Homo sapiens, MDA-MB-468, 48 h, read-out: LC50
# [59] = test system: SK-OV-3; conditions: Homo sapiens, SK-OV-3, 48 h, read-out: LC50
# [60] = test system: OVCAR-8; assay type: functional; conditions: Homo sapiens, time 48 hrs
compound,measurement,setting,value
NS(=O)(=O)c1ccc(-n2cc(/C=N/Nc3ccc(C(=O)O)cc3)c(-c3ccccc3)n2)cc1,GI50,[1],1.84 µM
same,CC50,[2],> 100 µM
same,CC50,[3],9.8 µM
same,TGI,[4],6.5 µM
same,CC50,[5],70.8 µM
same,GI50,[6],1.68 µM
same,CC50,[7],35 µM
same,TGI,[8],5.44 µM
same,GI50,[9],2.21 µM
same,GI50,[10],3.29 µM
same,GI50,[11],5.06 µM
same,CC50,[12],> 100 µM
same,CC50,[13],> 100 µM
same,TGI,[14],> 100 µM
same,TGI,[15],47.2 µM
same,CC50,[16],> 100 µM
same,CC50,[17],> 100 µM
same,GI50,[18],1.66 µM
same,GI50,[19],16.1 µM
same,GI50,[20],2.96 µM
same,CC50,[21],73.8 µM
same,TGI,[22],36.6 µM
same,CC50,[23],> 100 µM
same,TGI,[24],18.8 µM
same,GI50,[25],2 µM
same,TGI,[26],21.9 µM
same,CC50,[27],79.4 µM
same,CC50,[28],> 100 µM
same,GI50,[29],11.5 µM
same,TGI,[30],45.6 µM
same,GI50,[31],18.5 µM
same,CC50,[32],68.4 µM
same,CC50,[33],> 100 µM
same,GI50,[34],3.06 µM
same,GI50,[35],5.75 µM
same,CC50,[36],> 100 µM
same,TGI,[37],7.21 µM
same,CC50,[38],> 100 µM
same,TGI,[39],6.41 µM
same,CC50,[40],> 100 µM
same,CC50,[41],> 100 µM
same,TGI,[42],7.31 µM
same,CC50,[43],> 100 µM
same,CC50,[44],> 100 µM
same,CC50,[45],38.1 µM
same,TGI,[46],5.05 µM
same,TGI,[47],16.1 µM
same,TGI,[48],13.1 µM
same,GI50,[49],3.03 µM
same,GI50,[50],2.48 µM
same,TGI,[51],4.93 µM
same,CC50,[52],> 100 µM
same,CC50,[53],> 100 µM
same,TGI,[54],21.6 µM
same,GI50,[55],3.66 µM
same,GI50,[56],2.68 µM
same,GI50,[57],3.24 µM
same,CC50,[58],48.5 µM
same,CC50,[59],> 100 µM
same,GI50,[60],4.61 µM
CCOC(=O)c1ccc(N/N=C/c2cn(-c3ccc(S(N)(=O)=O)cc3)nc2-c2ccc(OC)cc2)cc1,GI50,[1],2.05 µM
same,CC50,[2],> 100 µM
same,CC50,[3],9.45 µM
same,TGI,[4],6.04 µM
same,CC50,[5],> 100 µM
same,GI50,[6],2.52 µM
same,CC50,[7],> 100 µM
same,TGI,[8],10.2 µM
same,GI50,[9],2.34 µM
same,GI50,[10],2.65 µM
same,GI50,[11],4.56 µM
same,CC50,[12],> 100 µM
same,CC50,[13],> 100 µM
same,TGI,[14],> 100 µM
same,TGI,[15],> 100 µM
same,CC50,[16],> 100 µM
same,CC50,[17],> 100 µM
same,GI50,[18],1.74 µM
same,GI50,[19],8.02 µM
same,GI50,[20],2.86 µM
same,CC50,[21],> 100 µM
same,TGI,[22],> 100 µM
same,CC50,[23],> 100 µM
same,TGI,[24],> 100 µM
same,GI50,[25],2.15 µM
same,TGI,[26],> 100 µM
same,CC50,[27],> 100 µM
same,CC50,[28],> 100 µM
same,GI50,[29],13.4 µM
same,TGI,[30],> 100 µM
same,GI50,[31],19.2 µM
same,CC50,[32],> 100 µM
same,CC50,[33],> 100 µM
same,GI50,[34],3.5 µM
same,GI50,[35],3.97 µM
same,CC50,[36],> 100 µM
same,TGI,[37],4.92 µM
same,CC50,[38],> 100 µM
same,TGI,[39],7.85 µM
same,CC50,[40],> 100 µM
same,CC50,[41],> 100 µM
same,TGI,[42],6.63 µM
same,CC50,[43],> 100 µM
same,CC50,[44],> 100 µM
same,CC50,[45],> 100 µM
same,TGI,[46],5.48 µM
same,TGI,[47],> 100 µM
same,TGI,[48],9.2 µM
same,GI50,[49],2.58 µM
same,GI50,[50],2.8 µM
same,TGI,[51],5.72 µM
same,CC50,[52],> 100 µM
same,CC50,[53],> 100 µM
same,TGI,[54],9.82 µM
same,GI50,[55],3.29 µM
same,GI50,[56],2.53 µM
same,GI50,[57],3.17 µM
same,CC50,[58],> 100 µM
same,CC50,[59],> 100 µM
same,GI50,[60],3.79 µM
CCOC(=O)c1ccc(N/N=C/c2cn(-c3ccc(S(N)(=O)=O)cc3)nc2-c2ccccc2)cc1,GI50,[1],1.88 µM
same,CC50,[2],> 100 µM
same,CC50,[3],7.01 µM
same,TGI,[4],3.84 µM
same,CC50,[5],> 100 µM
same,GI50,[6],1.95 µM
same,CC50,[7],54.8 µM
same,TGI,[8],4.82 µM
same,GI50,[9],2.03 µM
same,GI50,[10],2.54 µM
same,GI50,[11],3.42 µM
same,CC50,[12],> 100 µM
same,CC50,[13],> 100 µM
same,TGI,[14],21.2 µM
same,TGI,[15],47.6 µM
same,CC50,[16],> 100 µM
same,CC50,[17],9.69 µM
same,GI50,[18],1.6 µM
same,GI50,[19],4.68 µM
same,GI50,[20],2.28 µM
same,CC50,[21],54.2 µM
same,TGI,[22],17.5 µM
same,CC50,[23],> 100 µM
same,TGI,[24],19 µM
same,GI50,[25],2.01 µM
same,TGI,[26],20.1 µM
same,CC50,[27],> 100 µM
same,CC50,[28],> 100 µM
same,GI50,[29],3.16 µM
same,TGI,[30],32.6 µM
same,GI50,[31],6.21 µM
same,CC50,[32],> 100 µM
same,CC50,[33],> 100 µM
same,GI50,[34],2.47 µM
same,GI50,[35],3.25 µM
same,CC50,[36],80.4 µM
same,TGI,[37],4.52 µM
same,CC50,[38],> 100 µM
same,TGI,[39],4.18 µM
same,CC50,[40],> 100 µM
same,CC50,[41],> 100 µM
same,TGI,[42],4.84 µM
same,CC50,[43],> 100 µM
same,CC50,[44],> 100 µM
same,CC50,[45],37.4 µM
same,TGI,[46],4.38 µM
same,TGI,[47],7.86 µM
same,TGI,[48],5.5 µM
same,GI50,[49],2.65 µM
same,GI50,[50],1.92 µM
same,TGI,[51],5.62 µM
same,CC50,[52],50.2 µM
same,CC50,[53],> 100 µM
same,TGI,[54],9.38 µM
same,GI50,[55],2.77 µM
same,GI50,[56],2.19 µM
same,GI50,[57],2.64 µM
same,CC50,[58],8.16 µM
same,CC50,[59],> 100 µM
same,GI50,[60],3.23 µM
